B1: glmS ribozyme (parent)
chain: AUAAAAGCGCCAGAACUACAGAAAUGUAGUUGACGAGGAGGAGGUUUAUCGAAUUUUCGGCGGAUGCCUCCAAA

± gives the standard error. This sample is rich in variants without activity.

What all share (conditions): with glucosamine-6-phosphate
The variants in data set [1] derive from B1. Briefly: self-cleavage kobs at 640 uM GlcN6P; higher = faster cleavage; RNA array. In a few lines:
(§1)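 Tiles of sequenced MiSeq chips were imaged over ~14 h at 37 °C. On them, barcoded ribozyme variants had been transcribed in situ by E. coli RNA polymerase and were tracked via a hybridised Cy3 probe while glucosamine-6-phosphate (40 μM to 10 mM) in HEPES/KCl/Mg(OAc)2 buffer flowed in. Per-tile medians, normalised to baseline and to non-cleaving reference variants, were fit to one- or two-exponential decays for kobs, and weighted Michaelis–Menten fits gave kcat and KM.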

The variants in data set [2] derive from B1. Description: self-cleavage kobs at 2500 uM GlcN6P; higher = faster cleavage; RNA array. The procedure, abridged:
as §1

Data set [3] covers variants of B1. Briefly: self-cleavage kobs at 160 uM GlcN6P; higher = faster cleavage; RNA array. The procedure, abridged: as §1
The variants in data set [4] derive from B1. Description: self-cleavage kobs at 10000 uM GlcN6P; higher = faster cleavage; RNA array. The procedure, abridged: as §1

For the variant A39U G44U U49A, the “self-cleavage kobs at 640 uM GlcN6P” value with glucosamine-6-phosphate [1] is less than 1e-05 s⁻¹. The “self-cleavage kobs at 2500 uM GlcN6P” value with glucosamine-6-phosphate [2] is less than 1e-05 s⁻¹.
As to A36C G66C, in the data set with glucosamine-6-phosphate [1], the “self-cleavage kobs at 640 uM GlcN6P” value is less than 1e-05 s⁻¹. In addition, the “self-cleavage kobs at 160 uM GlcN6P” value with glucosamine-6-phosphate [3] is less than 1e-05 s⁻¹. The “self-cleavage kobs at 10000 uM GlcN6P” value with glucosamine-6-phosphate [4] is less than 1e-05 s⁻¹.
Take A15G G29U G43C: in the data set with glucosamine-6-phosphate [1], the “self-cleavage kobs at 640 uM GlcN6P” value is less than 1e-05 s⁻¹. Further, the “self-cleavage kobs at 160 uM GlcN6P” value with glucosamine-6-phosphate [3] was less than 1e-05 s⁻¹.
Consider G43U A52U A64U, for which, in the data set with glucosamine-6-phosphate [1], the “self-cleavage kobs at 640 uM GlcN6P” value is less than 1e-05 s⁻¹. Further, the “self-cleavage kobs at 160 uM GlcN6P” value in the data set with glucosamine-6-phosphate [3] was less than 1e-05 s⁻¹. In the data set with glucosamine-6-phosphate [2], the “self-cleavage kobs at 2500 uM GlcN6P” value is less than 1e-05 s⁻¹.
For G35A G44U U45G C71G, the “self-cleavage kobs at 640 uM GlcN6P” value with glucosamine-6-phosphate [1] was less than 1e-05 s⁻¹. Besides, in the data set with glucosamine-6-phosphate [3], the “self-cleavage kobs at 160 uM GlcN6P” value was less than 1e-05 s⁻¹. Further, the “self-cleavage kobs at 2500 uM GlcN6P” value with glucosamine-6-phosphate [2] is less than 1e-05 s⁻¹.
As to A33G G35A U46C U47A G60C, in the data set with glucosamine-6-phosphate [1], the “self-cleavage kobs at 640 uM GlcN6P” value is less than 1e-05 s⁻¹.
As to A14G U46A G63U, the “self-cleavage kobs at 640 uM GlcN6P” value with glucosamine-6-phosphate [1] was less than 1e-05 s⁻¹. The “self-cleavage kobs at 2500 uM GlcN6P” value with glucosamine-6-phosphate [2] is less than 1e-05 s⁻¹.
In the case of G32U G63C C67U, the “self-cleavage kobs at 640 uM GlcN6P” value with glucosamine-6-phosphate [1] is less than 1e-05 s⁻¹. In addition, the “self-cleavage kobs at 160 uM GlcN6P” value with glucosamine-6-phosphate [3] is less than 1e-05 s⁻¹.
U31G G41U: the “self-cleavage kobs at 640 uM GlcN6P” value in the data set with glucosamine-6-phosphate [1] came to 0.000154 ± 6.3e-05 s⁻¹. For the same variant, the “self-cleavage kobs at 160 uM GlcN6P” value with glucosamine-6-phosphate [3] was 6.71e-05 ± 1.8e-05 s⁻¹. The “self-cleavage kobs at 2500 uM GlcN6P” value with glucosamine-6-phosphate [2] worked out at 0.000806 ± 0.00017 s⁻¹. The “self-cleavage kobs at 10000 uM GlcN6P” value in the data set with glucosamine-6-phosphate [4] was found to be 0.000505 ± 0.0001 s⁻¹.
For A15C A36C C67U, in the data set with glucosamine-6-phosphate [1], the “self-cleavage kobs at 640 uM GlcN6P” value is less than 1e-05 s⁻¹. Besides, the “self-cleavage kobs at 160 uM GlcN6P” value in the data set with glucosamine-6-phosphate [3] was less than 1e-05 s⁻¹. In the data set with glucosamine-6-phosphate [2], the “self-cleavage kobs at 2500 uM GlcN6P” value was less than 1e-05 s⁻¹.
For the variant G32C A39U G60U, the “self-cleavage kobs at 640 uM GlcN6P” value with glucosamine-6-phosphate [1] was less than 1e-05 s⁻¹. In the data set with glucosamine-6-phosphate [3], the “self-cleavage kobs at 160 uM GlcN6P” value was less than 1e-05 s⁻¹. Moreover, the “self-cleavage kobs at 2500 uM GlcN6P” value with glucosamine-6-phosphate [2] is less than 1e-05 s⁻¹.
With A15G C58G C68U, the “self-cleavage kobs at 640 uM GlcN6P” value with glucosamine-6-phosphate [1] is 6.1e-05 ± 1.7e-05 s⁻¹. Further, in the data set with glucosamine-6-phosphate [3], the “self-cleavage kobs at 160 uM GlcN6P” value is 8.66e-05 ± 3.1e-05 s⁻¹. Besides, the “self-cleavage kobs at 2500 uM GlcN6P” value with glucosamine-6-phosphate [2] was found to be 5.67e-05 ± 1.6e-05 s⁻¹. For the same variant, the “self-cleavage kobs at 10000 uM GlcN6P” value with glucosamine-6-phosphate [4] is 3.61e-05 ± 1.6e-05 s⁻¹.
The matching figures for U47G C50A A64G U69G: 0.000155 ± 3.9e-05 s⁻¹, 0.000158 ± 4.6e-05 s⁻¹, 0.000142 ± 3.1e-05 s⁻¹ and 3.49e-05 ± 1.6e-05 s⁻¹.
In the case of U47C G51U C71G, the “self-cleavage kobs at 640 uM GlcN6P” value with glucosamine-6-phosphate [1] is less than 1e-05 s⁻¹.
Turning to G35A A64G, the “self-cleavage kobs at 640 uM GlcN6P” value with glucosamine-6-phosphate [1] is less than 1e-05 s⁻¹. Also, the “self-cleavage kobs at 160 uM GlcN6P” value in the data set with glucosamine-6-phosphate [3] was less than 1e-05 s⁻¹. In addition, in the data set with glucosamine-6-phosphate [2], the “self-cleavage kobs at 2500 uM GlcN6P” value is less than 1e-05 s⁻¹. Besides, in the data set with glucosamine-6-phosphate [4], the “self-cleavage kobs at 10000 uM GlcN6P” value was less than 1e-05 s⁻¹.
As for C16A G62C U69A, in the data set with glucosamine-6-phosphate [1], the “self-cleavage kobs at 640 uM GlcN6P” value is less than 1e-05 s⁻¹.
Regarding A15G G44C G59U, the “self-cleavage kobs at 640 uM GlcN6P” value with glucosamine-6-phosphate [1] is less than 1e-05 s⁻¹. In addition, the “self-cleavage kobs at 2500 uM GlcN6P” value with glucosamine-6-phosphate [2] is less than 1e-05 s⁻¹.
As for G35U C67A U69C, the “self-cleavage kobs at 640 uM GlcN6P” value in the data set with glucosamine-6-phosphate [1] was less than 1e-05 s⁻¹.
For G29U G41U C50U, the “self-cleavage kobs at 640 uM GlcN6P” value with glucosamine-6-phosphate [1] is less than 1e-05 s⁻¹. In addition, the “self-cleavage kobs at 10000 uM GlcN6P” value in the data set with glucosamine-6-phosphate [4] is less than 1e-05 s⁻¹.
As to G29A G35C U57A, the “self-cleavage kobs at 640 uM GlcN6P” value with glucosamine-6-phosphate [1] was less than 1e-05 s⁻¹.
As for A15C A33U G63C, the “self-cleavage kobs at 640 uM GlcN6P” value with glucosamine-6-phosphate [1] is less than 1e-05 s⁻¹.
On the same count and under the same terms, the result for A39U G41C G60A reads less than 1e-05 s⁻¹.
Regarding A14U U30G G40A, the “self-cleavage kobs at 640 uM GlcN6P” value with glucosamine-6-phosphate [1] was determined as 0.000126 ± 3.6e-05 s⁻¹. Also, the “self-cleavage kobs at 2500 uM GlcN6P” value with glucosamine-6-phosphate [2] was determined as 0.000424 ± 0.00014 s⁻¹.
As to C19A U54C C58A C68G, the “self-cleavage kobs at 640 uM GlcN6P” value in the data set with glucosamine-6-phosphate [1] worked out at 9.88e-05 ± 2.4e-05 s⁻¹. Besides, in the data set with glucosamine-6-phosphate [2], the “self-cleavage kobs at 2500 uM GlcN6P” value turned out to be 0.00036 ± 0.0001 s⁻¹.
For the variant G29U A64U, in the data set with glucosamine-6-phosphate [1], the “self-cleavage kobs at 640 uM GlcN6P” value was less than 1e-05 s⁻¹. In addition, the “self-cleavage kobs at 160 uM GlcN6P” value with glucosamine-6-phosphate [3] is less than 1e-05 s⁻¹.
Turning to A33C G41U G43A G44U, the “self-cleavage kobs at 640 uM GlcN6P” value with glucosamine-6-phosphate [1] is less than 1e-05 s⁻¹. For the same variant, the “self-cleavage kobs at 160 uM GlcN6P” value with glucosamine-6-phosphate [3] was less than 1e-05 s⁻¹. In the data set with glucosamine-6-phosphate [2], the “self-cleavage kobs at 2500 uM GlcN6P” value was less than 1e-05 s⁻¹.
